Data as given in publication PMC4336329 (PLoS ONE, 2015).
Screen size: about 310,000 compounds; about 14,000 (4.5%) showed an effect of 50% or more. Effects have a minus sign here. This is one part of the list.

These molecules were tested against human ether-à-go-go-related gene (hERG) potassium channel (human, UniProt Q12809) (assay: primary screen, population patch clamp on CHO cells stably expressing hERG).
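Also: peak tail current of the secondary pulse compared with the same well before compound.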

human ether-à-go-go-related gene (hERG) potassium channel, sequence (Q12809 whole entry, looked up): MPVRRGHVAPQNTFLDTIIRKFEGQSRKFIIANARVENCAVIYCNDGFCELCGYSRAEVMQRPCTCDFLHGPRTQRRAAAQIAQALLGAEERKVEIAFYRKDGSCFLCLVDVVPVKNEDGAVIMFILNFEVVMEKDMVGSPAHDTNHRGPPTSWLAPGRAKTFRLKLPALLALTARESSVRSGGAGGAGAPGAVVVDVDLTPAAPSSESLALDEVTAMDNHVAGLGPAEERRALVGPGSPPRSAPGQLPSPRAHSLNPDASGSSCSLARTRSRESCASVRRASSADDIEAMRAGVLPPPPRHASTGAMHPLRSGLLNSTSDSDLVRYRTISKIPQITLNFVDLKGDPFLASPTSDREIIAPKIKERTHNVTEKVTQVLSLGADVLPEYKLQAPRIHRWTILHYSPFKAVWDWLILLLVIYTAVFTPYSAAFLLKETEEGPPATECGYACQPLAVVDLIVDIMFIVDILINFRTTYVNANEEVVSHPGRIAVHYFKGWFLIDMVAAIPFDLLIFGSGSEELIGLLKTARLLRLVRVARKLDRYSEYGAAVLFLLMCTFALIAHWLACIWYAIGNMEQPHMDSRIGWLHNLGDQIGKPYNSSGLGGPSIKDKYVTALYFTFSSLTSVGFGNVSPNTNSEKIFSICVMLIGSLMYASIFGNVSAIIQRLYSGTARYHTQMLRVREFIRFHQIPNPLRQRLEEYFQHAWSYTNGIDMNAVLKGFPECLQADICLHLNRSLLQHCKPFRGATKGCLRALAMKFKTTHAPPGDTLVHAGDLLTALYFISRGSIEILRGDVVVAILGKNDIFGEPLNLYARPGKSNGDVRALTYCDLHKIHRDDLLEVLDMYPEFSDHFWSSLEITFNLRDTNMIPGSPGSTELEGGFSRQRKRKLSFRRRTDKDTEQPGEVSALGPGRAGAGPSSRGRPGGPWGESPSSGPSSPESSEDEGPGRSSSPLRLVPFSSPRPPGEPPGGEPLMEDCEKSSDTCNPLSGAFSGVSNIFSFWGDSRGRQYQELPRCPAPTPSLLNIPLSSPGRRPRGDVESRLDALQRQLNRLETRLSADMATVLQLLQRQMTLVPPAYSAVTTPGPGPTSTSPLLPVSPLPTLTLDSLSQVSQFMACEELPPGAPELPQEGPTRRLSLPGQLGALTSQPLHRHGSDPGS

Row | Structure (SMILES) | hERG current change (%, negative = inhibition) at 10uM
1 | CCOC(=O)c1nn(-c2ccc(F)cc2)c(-c2ccccc2)c1C(=O)c1ccccc1 | 2.45%
2 | CN(C(=O)CC1C(=O)NCCN1Cc1ccc(F)cc1Cl)C1CCCCC1 (stereo not shown) | -2.68%
3 | CCOC(=O)c1c(N=CN(C)C)c(C#N)c2n1CCCC2 | -6.8%
4 | Cc1c(C#N)c(N)nc2c3c(sc12)NC(=O)CC3c1ccc(Cl)cc1 (stereo not shown) | -0.141%
5 | O=C(Nc1cccc(NC(=O)c2cccs2)c1)c1ccc(F)cc1 | 13.5%
6 | CCOc1ccc(CCNC(=O)COC(=O)COc2ccc(Cl)cc2)cc1OCC | 1.26%
7 | NC(=O)NCc1cccs1 | 7.27%
8 | CCCc1cc(=O)[nH]c(SCC(=O)NC(=O)NC2CCCC2)n1 | 4.35%
9 | CN(C)c1ccc(N2C(=NC(=O)c3ccccc3)SC3CS(=O)(=O)CC32)cc1 (stereo not shown) | 3.69%
10 | COc1cccc(-c2cc(C(=O)Nc3ccncc3)c3ccccc3n2)c1 | 0.0486%
11 | Cc1ccc2[nH]c3c(=O)n(CCCN4CCOCC4)cnc3c2c1 | -17.8%
12 | CCOC(=O)c1[nH]c2ccc(F)cc2c1NC(=O)C1=COCCO1 | 7.28%
13 | O=C(CSc1ccc(-c2cccs2)nn1)NCCc1ccccc1 | -14.1%
14 | CCN=C(NCC)SC1CC(=O)N(c2ccc(OC)cc2)C1=O (stereo not shown) | 0.718%
15 | Cn1cnnc1Sc1nc2c(c(=O)n(C)c(=O)n2C)n1C | -1.73%
16 | COc1ccc(-c2[nH]ncc2CN2CCN(C3CCCCC3)C(=O)C2)cc1F | -20%
17 | CCCOc1ccc(/C(O)=C2\C(=O)C(=O)N(c3ccccn3)C2c2ccccc2F)cc1C (stereo not shown) | -18%
18 | COc1ccc(/C=N/NC(=O)c2ccccc2F)cc1CN1CCN(c2ccc(F)cc2)CC1 | -76.2%
19 | Cc1cc(NS(=O)(=O)c2ccc(NC(=O)C(C)Oc3ccc(Cl)cc3)cc2)no1 (stereo not shown) | 12%
20 | O=C(NC1CCCCC1)C1CCN(C(=O)c2ccc(-c3ccccc3)cc2)CC1 | 20.2%
21 | COc1ccc2[nH]c(C)c(C(=O)CN3CCN(C/C=C/c4ccccc4)CC3)c2c1 | -25.8%
22 | CC(Oc1ccc(-c2ccccc2)cc1)C(=O)N1CCOCC1 (stereo not shown) | 15.4%

Row | Structure (SMILES) | hERG current change (%, negative = inhibition) at 10uM
23 | COc1ccccc1NS(=O)(=O)c1cccc(C(=O)N/N=C(\C)c2cccnc2)c1 | -17.7%
24 | CCCn1c(N)c(N(CCOC)C(=O)COC(=O)c2ccccc2NCCO)c(=O)[nH]c1=O | 4.72%
25 | O=C(O)COc1ccccc1/C=N/NC(=O)CSc1nc2ccccc2s1 | 9.71%
26 | NS(=O)(=O)c1ccc(Nc2nc(-c3ccc4ccccc4c3)cs2)cc1 | -7.18%
27 | C=CCNC(=S)Nc1ccc(N(C)C)cc1 | -6%
28 | CCOC(=O)CNC(=O)c1ccc(C#CC2(O)CCCCC2)cc1 | 2.68%
29 | CCN(C(=O)CSc1nc(C)nc2sc(C)c(C)c12)c1ccc(F)cc1 | 3.2%
30 | NS(=O)(=O)c1ccc(CNC(=O)CNC(=O)c2ccc(F)cc2)cc1 | 23%
31 | Cc1ccc(OCCNC(=O)CNC(=O)c2ccc3c(c2)OCO3)cc1 | 3.68%
32 | Cc1nc(NC(C)c2ccccc2)sc1C(=O)Nc1ccccc1 (stereo not shown) | -12.8%
33 | Cc1ccc(-c2ccc(=O)[nH]n2)cc1 | 12%
34 | CC(C)(C)C(=O)CNS(=O)(=O)c1ccc(S(=O)(=O)NC2CCCC2)cc1 | -3.36%
35 | COc1ccc(NC(=S)NC(C)Cc2cccs2)cc1 (stereo not shown) | 7.6%
36 | CN(C)CCCN(C(=O)c1ccc(S(=O)(=O)N2CCc3ccccc32)cc1)c1nc2ccc(Cl)cc2s1.Cl | 10.5%
37 | O=C(c1ccccc1)c1nn(-c2ccccc2)c(=O)cc1C(F)(F)F | -14.7%
38 | Cc1c(N=Cc2cc(Br)cc(Br)c2O)cccc1C(=O)O | 9.97%
39 | N#CC(c1cccc(Cl)c1)c1ccc2c(C(F)(F)F)cc(C(F)(F)F)nc2n1 (stereo not shown) | 4.7%
40 | Cn1ccnc1COc1ccc(C=O)cc1 | 10.4%
41 | O=C(NC1CCCCC1)N1CCN(CCc2ccccc2)CC1 | -21.6%
42 | Cc1nc(-c2ccccc2)nc2[nH]ccc(=O)c12 | 10.7%
43 | CCCC[C@H]1COCCS(=O)(=O)N1Cc1cccc(Cl)c1 | -17.6%
